Laboratory results: publication PMC10571751, “Polyarginine Cell-Penetrating Peptides Bind and Inhibit SERCA2” (Cells, 2023)
No constants are given. Whether binding was seen depends on the method and setting. Some binding calls cover weakened binding; strength is not graded here.

Chains of the proteins cited; added tags and fusions are not shown. Residues count along the entry.
UniProt P16615, residues 111-253: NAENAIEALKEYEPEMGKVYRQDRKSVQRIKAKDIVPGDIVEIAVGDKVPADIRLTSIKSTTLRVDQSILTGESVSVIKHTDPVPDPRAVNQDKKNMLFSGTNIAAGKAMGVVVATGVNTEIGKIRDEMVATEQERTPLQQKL

Biological target: T1, 12xHis-SERCA2(111-253) (UniProt P16615 111-253)
T1 construct: also called recombinant SERCA2 polypeptide containing the A-domain; actuator domain of SERCA2; source: recombinant, generated by Genscript; dialysed into Biacore running buffer for SPR
Assay: ELISA; recombinant protein coated at 1 µg/well overnight at 4 °C, blocked with 0.5% gelatine; 50 µmol/L biotin-labelled peptide for 2 h at 37 °C; PBS-T washes; detected with anti-biotin-HRP, absorbance at 450 nm; both purified

Row | binding | Binder
1 | binds weakly | RRRRRRRRR (biotin on the N-terminus) [biotin-Arg9]
2 | binds | RRRRRRRRRRR (biotin on the N-terminus) [biotin-Arg11]
3 | no binding (tested: 50 µmol/L) | QYQNADAITLE (biotin on the N-terminus) [biotin-cargo(8-18)]
4 | no binding (tested: 50 µmol/L) | IEKELAQQY (biotin on the N-terminus) [biotin-cargo(1-9)]
5 | no binding (tested: 50 µmol/L) | IEKELAQQYQN (biotin on the N-terminus) [biotin-cargo(1-11)]
